Test results taken from PubChem BioAssay (NCATS).
This list was built around the results that the source calls inconclusive (neither active nor inactive); the mix of calls is not that of the screen. A potency beside an inconclusive call is a rough fit, not a confirmed value. Activity calls are given as the source filed them. The call rests on the fitted dose curve; in most records, active means well fitted curve in the direction sought with a large enough effect; inconclusive means small, poorly fitted or top-dose-only effect, or another doubt; inactive means no such curve, though single readings can be large; an effect the other way counts as inactive or inconclusive.

Tested on: not listed separately
Test: P-glycoprotein substrates identified in KB-8-5-11 adenocarcinoma cell line, qHTS therapeutic library screen (AID 1346987); further: nearly all actives have a fitted effect of over 65% in size; on activity change, negative = cytotoxicity: on the % scale 0 is the no-effect control and ±100 the full control effect
Details: KB-8-5-11 (P-gp overexpressing) viability, CellTiter-Glo, 72 h; series mostly up to 44.5 µM; activity change, negative = cytotoxicity: at the top concentration
Procedure, shortened: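 Luminescence from CellTiter-Glo, read 5 min after addition, quantified survival of KB-8-5-11 (P-gp-overexpressing) cells exposed to compounds for 72 h. AC50 was derived from concentration-response curves.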
Potency means the concentration at half of the fitted maximal effect; tags describe the fitted curve by direction and shape.

Row | Structure (SMILES) | Potency | activity change, negative = cytotoxicity
1 | O=C(NCCCn1ccnc1)c1cc(-c2ccco2)on1 | inconclusive: 29.1 µM [inhibitor, single point] | –
2 | C=C1CCC2C(C)(C)CCCC2(C)C1CC/C(C)=C\CO (stereo not drawn) | inconclusive: 29.1 µM [inhibitor, single point] | –
3 | CN(C)CC#CCCC(=O)C(O)(c1ccccc1)C1CCC1 (stereo not drawn) | – | inactive: -11.2%
4 | CC(NCCCc1cccc(C(F)(F)F)c1)c1cccc2ccccc12 (stereo not drawn) | – | inactive: -12.3% [at 17.3 µM]
5 | COc1ccc([C@H](Cc2ccncc2)c2ccccc2)cc1OC1CCCC1 | inconclusive: 11.6 µM [inhibitor, partial curve, poor fit] | –
6 | CCCCc1ccc(NS(=O)(=O)c2ccc(F)cc2)cc1 | – | inactive: -11.7%
7 | COc1ccc(NC(=O)c2ccc(-c3ccc(-c4nnc(C)o4)cc3C)cc2)cc1N1CCN(C)CC1 | – | inactive: -13.9%
8 | O=c1[nH]ccc2nc(-c3ccc(CN4CCC(c5nc(-c6ccccn6)n[nH]5)CC4)cc3)c(-c3ccccc3)cc12 | inconclusive: 18.4 µM [inhibitor, single point] | –
9 | COc1ccc(C(=O)Nc2c(Cl)cncc2Cl)cc1OC1CCCC1 | inconclusive: 14.6 µM [inhibitor, partial curve, poor fit] | –
10 | CC(C)[C@@H](c1ccc(C(F)(F)F)cc1CN(Cc1cc(C(F)(F)F)cc(C(F)(F)F)c1)c1nnn(C)n1)N1CCC(C(=O)O)CC1 | inconclusive: 20.6 µM [inhibitor, single point] | –
11 | O=[N+]([O-])c1ccc(Oc2ccc3c(c2)CCC(c2ccccc2)O3)nc1 (stereo not drawn) | inconclusive: 29.1 µM [inhibitor, single point] | –
12 | O=C(NC[C@H](O)CN1CCc2ccccc2C1)c1ccnc(NC2CCC2)c1 | inconclusive: 2.91 µM [inhibitor, full curve] | –
13 | CN1CCc2cc3c(cc2C(=O)Cc2cc4c(cc2C1)OCO4)OCO3 | inconclusive: 18 µM [inhibitor, single point] | –
14 | O=C(NC1CCN(CCc2c[nH]c3ccccc23)CC1)c1ccccc1 | inconclusive: 14.6 µM [inhibitor, single point] | –
15 | O=C(Nc1cccnc1)c1cc(-c2ccnc(F)c2)ccc1OCc1ccccc1 | inconclusive: 1.3 µM [inhibitor, full curve] | –

Tested on: not listed separately
Test: qHTS of pediatric cancer cell lines to identify multiple opportunities for drug repurposing: Primary screen for BT-12 cells (AID 1347101); further: nearly all actives have a fitted effect of over 25% in size;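 on activity change, negative = cytotoxic: plate controls were DMSO for no effect and bortezomib positive control for full effect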
Details: BT-12 viability, CellTiter-Glo luminescence, 48 h; series mostly up to 57.3 µM; activity change, negative = cytotoxic: at the top concentration
Procedure, shortened: (§1)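 Cells (500-1,000/well) rested 5 h, then received compounds for 48 h; metabolically active cells were measured by CellTiter-Glo luminescence. Final concentrations spanned up to 46 µM (MIPE, 11-point) or 0.59 nM-46 µM (NPC, 8-point) in primary screens, 11-point in follow-ups.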

Row | Structure (SMILES) | activity change, negative = cytotoxic | Potency
16 | CC(=O)[C@H]1CC[C@H]2[C@@H]3C=CC4=CC(=O)CC[C@@]4(C)[C@@H]3CC[C@]12C | inactive: -24% | –
17 | COc1cc(C(=O)OC(COCCC(C)C)CN2CCOCC2)cc(OC)c1OC (stereo not drawn) | inactive: 1.92% | –
18 | CC(=O)[C@@]1(O)CC[C@H]2[C@@H]3CCC4=CC(=O)CC[C@]4(C)[C@H]3CC[C@@]21C | – | inconclusive: 21.9 µM [cytotoxic, partial curve, poor fit]

Tested on: not listed separately
Test: qHTS of pediatric cancer cell lines to identify multiple opportunities for drug repurposing: Primary screen for OHS-50 cells (AID 1347103); further: nearly all actives have a fitted effect of over 40% in size
Details: OHS-50 osteosarcoma viability, CellTiter-Glo luminescence, 48 h; series mostly up to 57.3 µM; activity change, negative = cytotoxic: at the top concentration
Procedure, shortened: as §1

Row | Structure (SMILES) | Potency
19 | CC(=O)[C@H]1CC[C@H]2[C@@H]3C=CC4=CC(=O)CC[C@@]4(C)[C@@H]3CC[C@]12C | inconclusive: 15.5 µM [cytotoxic, partial curve]
20 | CC(=O)[C@@]1(O)CC[C@H]2[C@@H]3CCC4=CC(=O)CC[C@]4(C)[C@H]3CC[C@@]21C | inconclusive: 17.4 µM [cytotoxic, partial curve]
21 | O=C(NC1CCN(CCc2c[nH]c3ccccc23)CC1)c1ccccc1 | inconclusive: 13.8 µM [cytotoxic, partial curve, poor fit]

Tested on: Zika virus NS2B-NS3 protease (unlinked complex)
Test: Primary screen GU Rhodamine qHTS for Zika virus inhibitors: Unlinked NS2B-NS3 protease assay (AID 1347159); further: nearly all actives have a fitted effect of over 60% in size; on activity change, negative = inhibition: on the % scale 0 is the no-effect control and ±100 the full control effect
Details: Recombinant ZIKV NS2B-NS3 protease, Rhodamine110 substrate fluorescence; series mostly up to 107 µM; activity change, negative = inhibition: at the top concentration
Procedure, shortened: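 Enzyme 25 nM in Tris-HCl pH 8.0 + 0.01% Tween 20; compounds up to 114 microM, 15 min RT dark; + Rhod110 substrate 1.5 microM; read t0 and 15 min; delta fluorescence → % inhibition → 4-parameter Hill fit.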

Row | Structure (SMILES) | Potency | activity change, negative = inhibition
22 | C=C1CCC2C(C)(C)CCCC2(C)C1CC/C(C)=C\CO (stereo not drawn) | active: 17.8 µM | –
23 | CN(C)CC#CCCC(=O)C(O)(c1ccccc1)C1CCC1 (stereo not drawn) | inconclusive: 100 µM [inhibitor, single point] | –
24 | CCCCc1ccc(NS(=O)(=O)c2ccc(F)cc2)cc1 | active: 50.1 µM | –
25 | OC[C@H]1O[C@@H](OCCc2ccccc2)[C@H](O[C@@H]2OC[C@@H](O)[C@H](O)[C@H]2O)[C@@H](O)[C@@H]1O | inconclusive: 22.4 µM [inhibitor, full curve] | –
26 | O=c1[nH]ccc2nc(-c3ccc(CN4CCC(c5nc(-c6ccccn6)n[nH]5)CC4)cc3)c(-c3ccccc3)cc12 | inconclusive: 28.2 µM [inhibitor, full curve] | –
27 | CC(=O)OC1C(OC(=O)c2ccccc2)C2C(C)(C)CCC(OC(C)=O)C2(C)C23CCC(C)(C2)C(=O)CC13 (stereo not drawn) | inconclusive: 2 µM [inhibitor, full curve, poor fit] | –
28 | CC(C)[C@@H](c1ccc(C(F)(F)F)cc1CN(Cc1cc(C(F)(F)F)cc(C(F)(F)F)c1)c1nnn(C)n1)N1CCC(C(=O)O)CC1 | active: 3.16 µM | –
29 | O=[N+]([O-])c1ccc(Oc2ccc3c(c2)CCC(c2ccccc2)O3)nc1 (stereo not drawn) | – | inactive: 10.7%
30 | C=C1CCC2C(C)(CO[C@@H]3O[C@H](CO)[C@@H](O)[C@H](O)[C@H]3O)C(O)CCC2(C)C1C(=O)CC1=CCOC1=O (stereo partly drawn) | inconclusive: 22.4 µM [inhibitor, partial curve, poor fit] | –
31 | CC1OC(OC2C(O)COC(O[C@@H]3[C@@H](O)[C@@H](O)[C@H](OC4C(OC(=O)[C@]56CCC(C)(C)CC5C5=CCC7[C@@]8(C)C[C@H](O)[C@H](OC9OC(CO)C(O)C(O)C9O)[C@@](C)(CO)C8[C@H](O)C[C@@]7(C)[C@]5(C)CC6)OCC(O)C4O)O[C@H]3C)C2O)C(O)C(O)C1O (stereo partly drawn) | – | inactive: 8.24% [at 19.1 µM]
32 | CN1C(=O)c2ccccc2NC(=O)[C@]12O[C@@H]2c1cccc(O)c1 | inconclusive: 50.1 µM [inhibitor, partial curve, poor fit] | –
33 | CN(C)c1ccc(NC(=O)NS(=O)(=O)c2ccc(Cl)cc2)cc1 | inconclusive: 89.1 µM [inhibitor, single point] | –
